Out of some 310,000 compounds screened, about 2,200 (0.71%) showed an effect of 50% or more. The effect is printed as a negative number. Some of the results follow.
What follows are compounds tested against human ether-à-go-go-related gene (hERG) potassium channel (human, UniProt Q12809) (assay: primary screen, population patch clamp on CHO cells stably expressing hERG).
Chain of human ether-à-go-go-related gene (hERG) potassium channel (Q12809 whole entry, looked up): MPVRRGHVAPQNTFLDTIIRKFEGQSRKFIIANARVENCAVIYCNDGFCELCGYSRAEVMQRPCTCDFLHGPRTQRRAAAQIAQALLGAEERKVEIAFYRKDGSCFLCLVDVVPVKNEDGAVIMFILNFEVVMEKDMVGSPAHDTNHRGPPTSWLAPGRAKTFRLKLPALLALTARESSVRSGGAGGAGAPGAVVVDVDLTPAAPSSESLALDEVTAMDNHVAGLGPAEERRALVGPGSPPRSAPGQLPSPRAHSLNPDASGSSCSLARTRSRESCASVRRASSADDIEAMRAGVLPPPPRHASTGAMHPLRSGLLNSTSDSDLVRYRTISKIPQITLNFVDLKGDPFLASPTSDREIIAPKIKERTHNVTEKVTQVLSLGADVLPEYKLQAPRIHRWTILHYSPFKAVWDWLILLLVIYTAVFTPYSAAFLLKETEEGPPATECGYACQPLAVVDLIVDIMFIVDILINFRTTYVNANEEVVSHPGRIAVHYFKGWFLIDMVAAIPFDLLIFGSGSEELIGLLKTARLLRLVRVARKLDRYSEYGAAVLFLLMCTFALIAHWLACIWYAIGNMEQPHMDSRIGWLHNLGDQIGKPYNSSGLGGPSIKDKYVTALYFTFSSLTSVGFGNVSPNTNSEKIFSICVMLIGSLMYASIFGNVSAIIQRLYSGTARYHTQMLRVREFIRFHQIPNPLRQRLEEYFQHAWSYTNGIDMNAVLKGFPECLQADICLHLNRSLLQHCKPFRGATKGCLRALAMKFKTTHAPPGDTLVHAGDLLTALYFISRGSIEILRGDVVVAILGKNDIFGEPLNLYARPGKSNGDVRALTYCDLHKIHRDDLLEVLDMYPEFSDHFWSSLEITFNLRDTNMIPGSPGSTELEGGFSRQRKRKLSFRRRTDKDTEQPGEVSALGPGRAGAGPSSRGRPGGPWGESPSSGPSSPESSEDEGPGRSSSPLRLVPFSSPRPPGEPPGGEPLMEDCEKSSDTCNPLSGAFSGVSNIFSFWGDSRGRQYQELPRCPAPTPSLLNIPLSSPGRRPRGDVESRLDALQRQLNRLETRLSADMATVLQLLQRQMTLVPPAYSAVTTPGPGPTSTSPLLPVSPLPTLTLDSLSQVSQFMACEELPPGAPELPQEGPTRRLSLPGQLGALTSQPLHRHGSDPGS

| Structure (SMILES) | hERG current change (%, negative = inhibition) at 1uM [%] |
| --- | --- |
| COc1ccccc1CNC(=O)c1ccc2nc3[nH]c4ccccc4c3nc2c1 | -3.22 |
| O=C(CSc1nnc(SCc2ccc(Cl)cc2)s1)c1ccc2c(c1)OCO2 | 9.1 |
| O=S(=O)(/C=C/c1ccccc1)N1CCN(c2nc(-c3cccnc3)nc3ccccc23)CC1 | 15.3 |
| CCN(CC(=O)Nc1sc2c(c1C#N)CCC(C)C2)Cc1nc2ccccc2c(=O)[nH]1 (stereo not drawn) | 4.41 |
| C#CCOCCOCCOCCNc1nc(N2CCOCC2)nc(N2CCN(C(=O)[C@H]([C@@H](C)CC)n3cc(CCC[NH+]=C(N)N)nn3)CC2)n1.[Cl-] | 5.31 |
| O=C(CCCc1ccccc1)Nc1nccs1 | 8.93 |
| CCN(CC)c1ccc(/C=N/NC(=O)c2ccc(Br)o2)cc1 | 5.56 |
| Cc1ccc(N(C(C)C(=O)Nc2ccccc2C(=O)N2CCOCC2)S(C)(=O)=O)cc1C (stereo not drawn) | 9.47 |
| Cc1ccc(S(=O)(=O)N2CCOCC2)cc1C(=O)NNC(=O)c1ccoc1C | 9.64 |
| CCOC(=O)c1c(C)n(C)c2ccc(OC(=O)c3ccco3)cc12 | 8.64 |
| CCOc1ccc(-c2nnc(N)o2)cc1 | 12.6 |
| Cc1cc(C)c(C)c(S(=O)(=O)N[C@@H](C)C(=O)OCC(N)=O)c1C | 9.21 |
| COc1ccc2[nH]c(=O)c(CN(C(C)=O)c3ccc(C)c(C)c3)cc2c1 | 7.2 |
| CCOC(=O)C1=C(C)N(C)C(C)=C(C(=O)OCC)C1c1ccccn1 | 12.5 |
| COCc1cc(C)nc(OCC(=O)N/N=C/c2ccc(C)o2)c1C#N | 12.2 |
| CCCN(C(=O)Cc1ccc(S(=O)(=O)N2CCOCC2)s1)c1c(N)n(Cc2ccccc2)c(=O)[nH]c1=O | 12.9 |
| O=C(Nc1ccc(Br)cc1)N1CCCCC1 | 6.36 |
| COc1ccc(N(CC(=O)NC(C)C)C(=O)CCC(=O)Nc2ccccn2)cc1 | 14.6 |
| O=C(O)c1ccc(NC(=O)c2ccccc2NC(=O)c2ccccc2Cl)cc1 | 14.5 |
| Cc1ccc2c(C)c(C(=O)N(C)Cc3nccn3C)oc2c1C | -0.734 |
| CCCCn1nnc(NC(=O)COc2cc(C)ccc2C(C)C)n1 | 9.26 |
| CC(C(=O)N1CCN(c2ccccc2)CC1)N1C(=O)C2CC=CCC2C1=O (stereo not drawn) | 10.3 |

| Structure (SMILES) | hERG current change (%, negative = inhibition) at 1uM [%] |
| --- | --- |
| O=C(Nc1ccccc1)c1nnsc1S(=O)c1ccc(Cl)cc1 (stereo not drawn) | 12.9 |
| CC(C)(C)c1ccc(OCCC(=O)OCC(=O)Nc2ccc(N3CCOCC3)cc2)cc1 | 19 |
| Cc1cc(C(=O)N2CCC(C(=O)O)CC2)c(C(F)(F)F)o1 | 14.6 |
| C=CCc1ccccc1OCCNCc1ccccc1.O=C(O)C(=O)O | 11.7 |
| CC1CCN(Cc2cc(=O)oc3ccc4ccccc4c23)CC1 | -2.55 |
| CCOC(=O)N1CCN(c2c(NCc3ccc(F)cc3)c(=O)c2=O)CC1 | 8.84 |
| COc1c(/C=N/Nc2ccc(C(=O)O)cc2)c(CCN(C)C(C)=O)cc2c1OCO2 | 5.59 |
| COc1ccc(C2SCC(=O)N2c2c(C)n(C)n(-c3ccccc3)c2=O)cc1OC (stereo not drawn) | 13.5 |
| COc1ccc(C2C(C(=O)c3ccc(C)o3)=C(O)C(=O)N2CC2CCCO2)cc1OC (stereo not drawn) | 17.5 |
| O=C(N/N=C\c1c(O)ccc2ccccc12)c1cncc(Br)c1 | 11.2 |
| CCOC(=O)CN1C(=O)S/C(=C/c2ccco2)C1=O | 13.3 |
| COc1cccc(NC(=O)N(CCN(C)C)C(C)c2cccnc2)c1 (stereo not drawn) | -0.272 |
| O=C(NCc1cccs1)C1CCC(CNS(=O)(=O)c2ccccc2)CC1 (stereo not drawn) | 10.3 |
| O=C(Cc1ccc(Br)c2ccccc12)N/N=C/c1ccccn1 | 2.35 |
| Cc1ccc(-c2cc(C(=O)Nc3ccc(S(=O)(=O)Nc4onc(C)c4C)cc3)c3ccccc3n2)cc1 | 10.9 |
| Cc1cccc(C(=O)NNC(=O)c2ccco2)c1 | 14.2 |
| Cc1ccccc1C(=O)/C=C1/SCC(=O)N1C | 10.4 |
| COCCNC(=O)C1CC(c2ccccc2C(F)(F)F)=NO1 (stereo not drawn) | 14.7 |
| O=C(NCCN1CCCCC1)Nc1ccccc1F | 13.2 |
| O=C(CN1CCN(c2ccccc2F)CC1)Nc1cccnc1Cl | 4.52 |
| Cc1ccc(NC(=O)/C(=C/c2ccco2)c2ccccc2)c(C)c1 | 10.1 |
| CS(=O)(=O)N1N=C(c2ccco2)CC1c1ccccc1Cl (stereo not drawn) | 9.15 |

| Structure (SMILES) | hERG current change (%, negative = inhibition) at 1uM [%] |
| --- | --- |
| CCN(CC)/C(Sc1ccccc1)=C(/C(Cl)=C(Cl)Cl)[N+](=O)[O-] | 14.7 |
| Cn1sc(NC(=O)c2cccc(Cl)c2)nc1=O | -2.42 |
| CCCCn1c(N)c(N(Cc2ccccc2OC)C(=O)COc2cc(C)ccc2Cl)c(=O)[nH]c1=O | 10.8 |
| COc1ccnc(CS(=O)c2nc3cc(C(O)(F)F)ccc3[n-]2)c1OC.[Na+] (stereo not drawn) | -5.82 |
| COc1cc(NC(=O)CN2CCN(Cc3ccc4c(c3)OCO4)CC2)cc(OC)c1.O=C(O)C(=O)O | -9.16 |
| O=C(Nc1ncc(Cc2cccc([N+](=O)[O-])c2)s1)c1ccco1 | -0.332 |
| CCOc1nc(NCc2ccco2)nc(Nc2ccc(OC)cc2)n1 | 1.91 |
| Cc1cc(NS(=O)(=O)c2ccc(NC(=O)C(F)(F)F)cc2)nc(C)n1 | 18.8 |
| Cc1ccc[n+](CC(=O)c2ccccc2)c1.[Br-] | 12.2 |
| COc1ccc(S(=O)(=O)N2CCCCC2)cc1NC(=O)CSc1ncnc2ccccc12 | -15 |
| CCC(C)N1C(=O)/C(=C\c2cnc(N(C)C)nc2)C(=O)NC1=S (stereo not drawn) | 11 |
| CCNc1ccc(S(=O)(=O)N(C)C)cc1NCC(=O)Nc1ccccc1Cl | 5.76 |
| COc1cc(CN2CCN(CCCc3ccccc3)C(CCO)C2)cc(OC)c1O (stereo not drawn) | -11.8 |
| Cc1ccc2cccc(OCC(=O)Nc3cccc(S(=O)(=O)N4CCCC4)c3)c2n1 | 5.26 |
| COC(=O)c1cc(CNC(=O)Cc2ccsc2)ccc1OC | 15.3 |
| O=C(NNS(=O)(=O)c1ccccc1)c1cccs1 | 12.2 |
| C=CCn1c(=O)c(C(=O)NCCc2ccccc2)c(O)c2ccccc21 | 6.41 |
| COC(=O)c1ccc(COc2ccc(/C=N/N3CCN(C)CC3)cc2)cc1 | 6.64 |
| O=C(Oc1ccc(OC(=O)c2ccncc2)cc1)c1ccncc1 | 0.316 |
| Nc1ccc(C(=O)N2N=C(c3ccc(F)cc3)CC2(O)C(F)(F)F)cc1 (stereo not drawn) | 11.7 |
| COc1ccc(N=Cc2c(O)cc(C)oc2=O)cc1 | 4.5 |
| O=[N+]([O-])c1ccccc1Oc1ccc(C(F)(F)F)cn1 | 5.66 |

| Structure (SMILES) | hERG current change (%, negative = inhibition) at 1uM [%] |
| --- | --- |
| CCC(=NCCCn1ccnc1)c1c(O)n(-c2ccccc2)c(=O)[nH]c1=O | 10.5 |
| Cc1ccc(N(C)C(=O)c2cc(S(=O)(=O)N3CCc4ccccc43)cn2C)cc1 | 13.4 |
| CCOc1ccc(S(=O)(=O)NCCC(=O)N2CC=C(c3ccccc3)CC2)cc1 | 13.9 |
| CCn1cc(CCC(=O)NCc2cccc(OC)c2OC)c2ccccc21 | 23.5 |
| O=C(CSc1nnc(CNC(=O)C23CC4CC(CC(C4)C2)C3)n1-c1ccccc1)Nc1ccccc1 | 9.14 |
| COC(=O)/C(=C\Nc1cccc(Cl)c1C)c1ncc(C(F)(F)F)cc1Cl | 10.5 |
| CCc1ccccc1S(=O)(=O)Cc1ccc(C(=O)NC2CCCC2)o1 | 13.1 |
| Cc1ccc(NC2CCCN(C(=O)c3ccoc3C)C2)cc1C (stereo not drawn) | 7.35 |
| CCOc1ccccc1NC(=O)CCS(=O)(=O)c1cccs1 | 13 |
| Cc1cccc(-c2c3c(=O)n(C)c(=O)n(C)c3cn2-c2ccc(O)cc2)c1 | 13.8 |
| Cc1nc(N2CCN(Cc3nc4ccccc4[nH]3)CC2)c2oc3ccccc3c2n1 | -24.1 |
| O=C(NCCN1CCOCC1)C(=O)NCC1OCCN1C(=O)c1ccc(Cl)cc1 (stereo not drawn) | 14.2 |
| CCOc1cc(/C=N/NC(N)=O)cc(Br)c1OCc1ccccc1 | 8.87 |
| Cc1c(S(=O)(=O)N2CCCCC2)c(=O)n(C)c(=O)n1C | 2.83 |
| Cc1cccc(Sc2nc(-c3ccccc3)ccc2C#N)c1 | 7.37 |
| CCOc1cc(/C=N/Nc2nc(C)cc(=O)[nH]2)ccc1O | 14.4 |
| Clc1ccc(-c2ccc(/C=N/Nc3nncc(-c4ccccc4)n3)o2)cc1 | 13.4 |
| COc1ccc(O)c(C2(O)C(=O)c3ccccc3C2=O)c1 | 14.2 |
| CN1CCN(C(=O)CCn2c(=O)c3cccn3c3cccnc32)CC1 | 6.03 |
| COc1ccc(CC(=O)O/N=C(\N)Cc2ccc(OC)c(OC)c2)cc1 | 9.86 |
| O=C(N/N=C\c1cc2c(cc1[N+](=O)[O-])OCO2)c1cccs1 | 11.2 |
